Results from PubChem BioAssay (Tox21).
Some structures have more than one record in an assay (separate samples or runs), and their calls can disagree. Active and inactive are the calls of the source. Where a call stands in place of a potency, no number is given. Unless noted, calls follow the shape of the dose curve; as a rule, active = well fitted curve in the direction sought with a large enough effect in the repeat runs; inconclusive = weak or mixed curves; inactive = no such curve, though single readings can be large; an effect the other way counts as inactive or inconclusive.

Tests used:
[1] = qHTS assay to identify small molecule antagonists of the androgen receptor (AR) signaling pathway using the MDA cell line - cell viability counter screen (AID 743041; also: nearly all actives have a fitted effect of over 45% in size); conditions: MDA-kb2 viability, CellTiter-Fluor, 16 h, cells co-treated with R1881 androgen agonist; viability change, negative = cytotoxic: at 70.3 µM (top of the series) unless noted
In short: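 Cells were plated at 3,000 per well and left 5 h. Compounds in DMSO were then pinned in, followed by R1881. After 16 h at 37C, CellTiter-Fluor fluorescence gave viability.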

[2] = target: Estrogen receptor (Homo sapiens) (UniProt P03372); assay: qHTS assay to identify small molecule antagonists of the estrogen receptor alpha (ER-alpha) signaling pathway (AID 743069; active = well fitted curve in the direction sought with a large enough effect in the signal ratio in the repeat runs, not every such curve was filed as active; inconclusive = weak or mixed curves, or effect the other way; inactive = no such curve, though single readings can be large or run the other way; the % refers to the signal ratio); conditions: HEK293 ER-alpha-UAS-bla, beta-lactamase ratio, antagonist mode; activity, negative = inhibition: at 69.4 µM (top of the series) unless noted
Chain of UniProt P03372 (P03372 whole entry, looked up): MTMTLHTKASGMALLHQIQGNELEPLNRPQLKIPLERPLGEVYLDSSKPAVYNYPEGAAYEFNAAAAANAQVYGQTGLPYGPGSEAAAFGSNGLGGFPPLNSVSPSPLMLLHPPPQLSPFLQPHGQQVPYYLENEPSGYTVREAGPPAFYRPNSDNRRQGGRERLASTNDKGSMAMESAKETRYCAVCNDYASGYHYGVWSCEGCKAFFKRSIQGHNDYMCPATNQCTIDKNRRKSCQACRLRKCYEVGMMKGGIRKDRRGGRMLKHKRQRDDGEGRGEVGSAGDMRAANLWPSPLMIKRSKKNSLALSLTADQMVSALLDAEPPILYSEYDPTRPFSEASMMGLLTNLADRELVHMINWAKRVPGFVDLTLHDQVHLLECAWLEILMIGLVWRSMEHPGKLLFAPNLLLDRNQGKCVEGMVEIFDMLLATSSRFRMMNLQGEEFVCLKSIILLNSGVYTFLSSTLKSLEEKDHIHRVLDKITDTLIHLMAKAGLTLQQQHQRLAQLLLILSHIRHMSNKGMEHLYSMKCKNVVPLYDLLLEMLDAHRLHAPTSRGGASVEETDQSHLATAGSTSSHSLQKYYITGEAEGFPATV
In short: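 ER-alpha-UAS-bla GripTite HEK293 line; 2% charcoal-stripped FBS overnight; plated, 4 hr 37C/5% CO2; cpd in DMSO + 17beta-estradiol, 18 hr 37C; LiveBLAzer B/G FRET substrate 2 hr RT; fluorescence intensity.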

[3] = qHTS assay to identify small molecule antagonists of the estrogen receptor alpha (ER-alpha) signaling pathway - cell viability counter screen (AID 743074; calls by dose curve;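 also: HEK293 cells carrying ER-alpha-UAS-bla reporter stimulated with 17beta-estradiol; nearly all actives have a fitted effect of over 45% in size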)
[4] = tested on: thyroid hormone receptor (rat, GH3 cells); assay: qHTS assay to identify small molecule agonists of the thyroid receptor (TR) signaling pathway (AID 743066; calls by dose curve); conditions: GH3.TRE-Luc cells, TR agonist luciferase, 24 h; activation: at 83.9 µM (top of the series) unless noted
[5] = target: Estrogen receptor (Homo sapiens) (UniProt P03372); assay: qHTS assay to identify small molecule agonists of the estrogen receptor alpha (ER-alpha) signaling pathway (AID 743075; calls by dose curve;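 also: HEK293 GripTite cells with ER-alpha and UAS-driven beta-lactamase reporter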)
[6] = target: Estrogen receptor (Homo sapiens) (UniProt P03372); assay: qHTS assay to identify small molecule agonists of the estrogen receptor alpha (ER-alpha) signaling pathway using the BG1 cell line (AID 743079); conditions: BG1Luc4E2 cells, ERE-luciferase agonist, 22 h; activation: at 70.3 µM (top of the series) unless noted; also: nearly all actives have a fitted effect of over 20% in size
[7] = qHTS assay to identify small molecule antagonists of the estrogen receptor alpha (ER-alpha) signaling pathway using the BG1 cell line (AID 743080; calls by dose curve;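 also: BG1 cells stimulated with 17beta-estradiol alongside compound; nearly all actives have a fitted effect of over 25% in size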); conditions: BG1Luc4E2 ERE-luciferase antagonist mode, luminescence; activity change, negative = inhibition: at 70.3 µM (top of the series) unless noted
In short: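 BG1-Luc-4E2 cells (endogenous full-length ER-alpha, stable 4×ERE-luciferase) were starved 5 days in phenol-red-free medium with 10% charcoal-stripped FBS, plated 24 h, then given compound plus 17beta-estradiol for 21.5 h at 37 C; ONE-Glo luminescence read after 30 min.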

[8] = qHTS assay to identify small molecule antagonists of the estrogen receptor alpha (ER-alpha) signaling pathway using the BG1 cell line - cell viability counter screen (AID 743081); conditions: BG1Luc4E2 viability, CellTiter-Fluor, 22 h; activity change, negative = cytotoxicity: at 70.3 µM (top of the series);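 also: compound given together with 17beta-estradiol as the ER stimulus; nearly all actives have a fitted effect of over 45% in size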
[9] = qHTS assay to identify aromatase inhibitors - cell viability counter screen (AID 743084); conditions: MCF-7 aro ERE viability, CellTiter-Fluor, 24 h; activity change, negative = cytotoxicity: at 70.3 µM (top of the series) unless noted;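 also: cells stimulated with testosterone during compound exposure; nearly all actives have a fitted effect of over 55% in size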
[10] = target: Peroxisome proliferator-activated receptor gamma (Homo sapiens) (UniProt P37231); assay: qHTS assay to identify small molecule agonists of the peroxisome proliferator-activated receptor gamma (PPARg) signaling pathway (AID 743094; active = well fitted activation curve with a large enough effect in the signal ratio in the repeat runs, not every such curve was filed as active; inconclusive = weak or mixed curves, or effect the other way; inactive = no such curve, though single readings can be large or run the other way; the % refers to the signal ratio); conditions: HEK293H PPARg-UAS-bla, beta-lactamase FRET ratio, 17 h; activation: at 57 µM (top of the series) unless noted
Chain of UniProt P37231 (P37231 whole entry, looked up): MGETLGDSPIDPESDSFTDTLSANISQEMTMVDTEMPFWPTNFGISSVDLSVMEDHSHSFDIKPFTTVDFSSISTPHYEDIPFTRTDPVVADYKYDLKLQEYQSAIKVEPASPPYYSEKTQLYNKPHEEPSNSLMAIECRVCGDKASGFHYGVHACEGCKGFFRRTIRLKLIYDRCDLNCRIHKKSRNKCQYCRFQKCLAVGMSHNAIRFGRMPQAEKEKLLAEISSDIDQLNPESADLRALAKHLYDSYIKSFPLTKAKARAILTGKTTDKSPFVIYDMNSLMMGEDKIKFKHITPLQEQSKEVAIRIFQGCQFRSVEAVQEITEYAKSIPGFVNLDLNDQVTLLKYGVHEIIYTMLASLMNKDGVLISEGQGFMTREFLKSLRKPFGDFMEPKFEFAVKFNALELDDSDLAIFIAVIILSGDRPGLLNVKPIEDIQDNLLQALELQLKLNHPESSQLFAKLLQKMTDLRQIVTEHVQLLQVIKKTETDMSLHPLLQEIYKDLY
In short: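 Beta-lactamase FRET fluorescence was the read-out after a 1 h room-temperature substrate step, following 17 h compound treatment at 37C of HEK293H cells expressing a UAS-driven bla reporter responsive to PPARg.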

[11] = qHTS assay to identify small molecule antagonists of the thyroid receptor (TR) signaling pathway (AID 743065); also: nearly all actives have a fitted effect of over 55% in size
In short: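 Antagonism measured as loss of luciferase signal in GH3 cells stably carrying a TRE-luciferase reporter, co-treated with compound and T3 (1 nM final) for 23.5 h at 37 C. Viability was read in the same well by CellTiter-Fluor.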

[12] = qHTS assay to identify small molecule that activate the aryl hydrocarbon receptor (AhR) signaling pathway - cell viability counter screen (AID 743086); also: nearly all actives have a fitted effect of over 45% in size;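 as to viability change, negative = cytotoxic: HepG2 liver cells carrying the AhR DRE luciferase reporter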
In short: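 Cytotoxicity counter screen: CellTiter-Fluor signal (30 min, 37 C) in 4000 HepG2 cells/well carrying the DRE-luciferase reporter, following 24 h compound exposure at 37 C.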

[13] = target: Aryl hydrocarbon receptor (Homo sapiens) (UniProt P35869); assay: qHTS assay to identify small molecule that activate the aryl hydrocarbon receptor (AhR) signaling pathway (AID 743085); also: nearly all actives have a fitted effect of over 15% in size
Chain of UniProt P35869 (P35869 whole entry, looked up): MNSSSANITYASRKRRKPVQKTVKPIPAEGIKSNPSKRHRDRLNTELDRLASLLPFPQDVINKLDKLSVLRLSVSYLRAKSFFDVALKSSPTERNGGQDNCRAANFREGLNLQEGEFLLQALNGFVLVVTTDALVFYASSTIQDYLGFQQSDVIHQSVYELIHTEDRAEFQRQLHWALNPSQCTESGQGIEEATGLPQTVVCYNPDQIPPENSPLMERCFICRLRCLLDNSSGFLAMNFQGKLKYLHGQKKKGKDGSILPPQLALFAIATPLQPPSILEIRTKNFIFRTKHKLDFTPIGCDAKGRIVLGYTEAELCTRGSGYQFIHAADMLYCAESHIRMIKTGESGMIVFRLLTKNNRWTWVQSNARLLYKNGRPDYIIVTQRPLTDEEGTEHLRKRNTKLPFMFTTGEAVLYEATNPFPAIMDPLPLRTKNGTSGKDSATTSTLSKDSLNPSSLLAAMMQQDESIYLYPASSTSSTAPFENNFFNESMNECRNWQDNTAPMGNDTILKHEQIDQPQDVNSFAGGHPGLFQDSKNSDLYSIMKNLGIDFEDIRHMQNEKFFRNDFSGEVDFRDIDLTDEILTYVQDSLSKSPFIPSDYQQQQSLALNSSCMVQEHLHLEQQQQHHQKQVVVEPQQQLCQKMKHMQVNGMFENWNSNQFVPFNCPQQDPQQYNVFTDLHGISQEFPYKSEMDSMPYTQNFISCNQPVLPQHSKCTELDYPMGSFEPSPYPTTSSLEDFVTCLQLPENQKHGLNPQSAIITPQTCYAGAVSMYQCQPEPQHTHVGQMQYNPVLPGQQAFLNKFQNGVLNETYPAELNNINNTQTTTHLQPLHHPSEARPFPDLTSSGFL
In short: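 Reporter assay in engineered HepG2 line HG2L7.5c1, whose plasmid carries twenty dioxin responsive elements upstream of firefly luciferase. Treatment lasted 24 h at 37C; ONE-Glo luminescence gauged induction.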

[14] = qHTS assay to identify small molecule antagonists of the thyroid receptor (TR) signaling pathway - cell viability counter screen (AID 743064); conditions: GH3.TRE-Luc viability, CellTiter-Fluor, 24 h; activity change, negative = cytotoxic: at 70.3 µM (top of the series) unless noted; also: nearly all actives have a fitted effect of over 50% in size
In short: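 Same-well viability check: GH3.TRE-Luc cells stimulated with 1 nM T3 alongside test compound for 23.5 h, followed by CellTiter-Fluor fluorescence.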

[15] = target: Androgen receptor (Homo sapiens) (UniProt P10275); assay: qHTS assay to identify small molecule antagonists of the androgen receptor (AR) signaling pathway using the MDA cell line (AID 743042; also: nearly all actives have a fitted effect of over 55% in size)
Chain of UniProt P10275 (P10275 whole entry, looked up): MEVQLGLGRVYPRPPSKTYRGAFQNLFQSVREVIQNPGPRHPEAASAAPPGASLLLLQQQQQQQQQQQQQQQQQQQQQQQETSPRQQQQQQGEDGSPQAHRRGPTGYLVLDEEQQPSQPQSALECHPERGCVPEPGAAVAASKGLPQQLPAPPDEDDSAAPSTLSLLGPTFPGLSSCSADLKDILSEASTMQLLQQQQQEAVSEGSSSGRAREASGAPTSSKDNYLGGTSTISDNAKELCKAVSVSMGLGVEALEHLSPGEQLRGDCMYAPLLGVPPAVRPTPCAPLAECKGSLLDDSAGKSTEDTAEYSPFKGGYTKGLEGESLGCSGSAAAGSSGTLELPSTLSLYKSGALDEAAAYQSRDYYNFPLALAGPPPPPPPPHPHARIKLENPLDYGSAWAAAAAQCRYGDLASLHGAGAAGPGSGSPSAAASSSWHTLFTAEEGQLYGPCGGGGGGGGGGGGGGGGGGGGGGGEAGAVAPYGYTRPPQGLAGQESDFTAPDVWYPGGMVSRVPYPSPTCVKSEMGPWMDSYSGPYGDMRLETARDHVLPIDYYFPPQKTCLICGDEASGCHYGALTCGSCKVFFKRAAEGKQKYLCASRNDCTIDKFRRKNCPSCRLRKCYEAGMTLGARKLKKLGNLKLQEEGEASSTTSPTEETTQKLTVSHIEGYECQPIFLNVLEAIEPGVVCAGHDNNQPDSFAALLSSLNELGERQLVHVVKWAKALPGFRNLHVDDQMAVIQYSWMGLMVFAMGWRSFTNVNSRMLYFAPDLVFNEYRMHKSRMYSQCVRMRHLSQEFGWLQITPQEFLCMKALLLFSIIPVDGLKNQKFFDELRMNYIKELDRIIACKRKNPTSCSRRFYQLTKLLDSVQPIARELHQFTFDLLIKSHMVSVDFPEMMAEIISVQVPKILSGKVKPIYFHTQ
In short: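 Antagonist mode: compounds plus R1881 agonist added to MDA-kb2 AR-luc cells, incubated 16 h at 37C. Luciferase reporter luminescence quantified, with multiplexed CellTiter-Fluor readout for cell viability.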
Potency is read from the fitted curve at half-maximal effect; tags tell the direction and shape of the fitted curve or compound fluorescence and quenching.

## CC(C)C(Br)C(=O)NC(N)=O (configuration not stated)
[1]
  Potency: inactive
[2]
  Potency: inactive
[3]
  Potency: inconclusive [rising, single point]

## COC(=O)N(OC)c1ccccc1COc1ccn(-c2ccc(Cl)cc2)n1
[1]
  Potency: active: 1.72 µM
[4]
  Potency: inconclusive [inhibitor, partial curve, poor fit]
[3]
  Potency: inconclusive [cytotoxic, full curve]
[5]
  Potency: active: 0.275 µM [inconclusive]
[6]
  Potency: inconclusive [inhibitor, full curve]
[7]
  Potency: active: 0.77 µM
[8]
  Potency: inconclusive [cytotoxic, full curve]
[9]
  Potency: inconclusive [cytotoxic, single point]
[10]
  Potency: inactive

## c1ccc2c(c1)OCC(C1=NCCN1)O2 (configuration not stated)
[1]
  Potency: inconclusive [cytotoxic, partial curve]
[11]
  Potency: active: 7.5 µM
[4]
  activation: inconclusive: -7.73% [phenotype inactive]
[2]
  activity, negative = inhibition: inconclusive: -41.7%
[6]
  Potency: inconclusive [inhibitor, partial curve]
[9]
  Potency: inconclusive [cytotoxic, partial curve]
[12]
  Potency: inconclusive [falling, single point]
[10]
  activation: inconclusive: 6.85%

## Clc1ccc(C(Cl)(Cl)Cl)cc1
[1]
  Potency: inconclusive [rising, partial curve, poor fit]
[11]
  Potency: inactive
[6]
  Potency: active: 30.6 µM
[13]
  Potency: inconclusive [activator, partial curve, poor fit]

## CCCCCOC(=O)c1ccccc1C(=O)OCCCCC
[1]
  Potency: inactive
[2]
  Potency: inactive
[3]
  Potency: inconclusive [rising, full curve, poor fit]
[7]
  Potency: inconclusive [rising, partial curve, poor fit]

## CC(=O)OC1(c2ccccc2)CCN(CCc2ccccc2)CC1
[1]
  Potency: inconclusive [rising, partial curve, poor fit]
[14]
  Potency: active: 31.4 µM
[12]
  Potency: inconclusive [falling, single point]

## O.O.O.O=C([O-])[C@H]([O-])[C@@H]([O-])C(=O)[O-].O=C([O-])[C@H]([O-])[C@@H]([O-])C(=O)[O-].[K+].[K+].[Sb+3].[Sb+3]
[1]
  Potency: inconclusive [cytotoxic, full curve]
[14]
  Potency: inconclusive [cytotoxic, full curve, poor fit]
[2]
  Potency: active: 17.5 µM [inhibitor]
[6]
  Potency: inconclusive [inhibitor, partial curve, poor fit]
[7]
  Potency: inconclusive [rising, full curve]
[8]
  Potency: inconclusive [cytotoxic, partial curve]
[12]
  Potency: inconclusive [falling, partial curve]

## Cc1cc(C)cc(OP(=O)(Oc2cc(C)cc(C)c2)Oc2cc(C)cc(C)c2)c1
[1]
  Potency: inconclusive [rising, full curve, poor fit]
[11]
  Potency: inconclusive [inhibitor, single point]
[10]
  Potency: inconclusive [fluorescent, partial curve, poor fit]

## CC(Cl)C(C)Cl (configuration not stated)
[1]
  Potency: inactive
[6]
  Potency: inactive

## BrCCCCBr
[14]
  Potency: inconclusive [rising, single point]

## O=c1[nH]c2ccccc2o1
[14]
  Potency: inactive

## CN=C=S
[1]
  Potency: inactive
[3]
  Potency: inconclusive [cytotoxic, full curve, poor fit]
[6]
  Potency: inactive
[10]
  Potency: inactive

## O=C(O)COc1ccc(Cl)cc1Cl
[14]
  Potency: inactive

## CCCCCCCCCCCCCCCCCC(=O)O
[1]
  Potency: inconclusive [rising, single point]
[3]
  Potency: inconclusive [cytotoxic, partial curve, poor fit]

## CCC(C)(C)O
[14]
  activity change, negative = cytotoxic: inconclusive: 19%

## CCCCOC(=O)c1ccccc1N
[14]
  Potency: inconclusive [cytotoxic, single point]

## O=S(=O)(Cl)c1ccccc1
[14]
  Potency: inactive

## Nc1cc(Cl)cc(C(=O)O)c1Cl
[14]
  Potency: inactive

## CCC(=O)OC1(c2ccccc2)CCN(C)CC1
[14]
  Potency: inconclusive [rising, single point]

## N#CN
[14]
  Potency: inconclusive [cytotoxic, partial curve, poor fit]

## [N-]=[N+]=[N-]
[15]
  Potency: inconclusive [inhibitor, full curve, poor fit]
[3]
  Potency: inconclusive [cytotoxic, single point]
[7]
  Potency: active: 68.6 µM
[12]
  Potency: inactive
